This note sets out measurements from article PMC4336329 (PLoS ONE, 2015).

Each structure is given as a SMILES string. The whole screen tested about 310,000 compounds, of which about 14,000 (4.5%) showed an effect of 50% or more. Effects have a minus sign here. Some of the results follow.
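Further: peak tail current of the secondary pulse compared with the same well before compound.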

This experiment deals with human ether-à-go-go-related gene (hERG) potassium channel (human, UniProt Q12809). Put plainly: primary screen, population patch clamp on CHO cells stably expressing hERG.
Chain of human ether-à-go-go-related gene (hERG) potassium channel (Q12809 whole entry, looked up): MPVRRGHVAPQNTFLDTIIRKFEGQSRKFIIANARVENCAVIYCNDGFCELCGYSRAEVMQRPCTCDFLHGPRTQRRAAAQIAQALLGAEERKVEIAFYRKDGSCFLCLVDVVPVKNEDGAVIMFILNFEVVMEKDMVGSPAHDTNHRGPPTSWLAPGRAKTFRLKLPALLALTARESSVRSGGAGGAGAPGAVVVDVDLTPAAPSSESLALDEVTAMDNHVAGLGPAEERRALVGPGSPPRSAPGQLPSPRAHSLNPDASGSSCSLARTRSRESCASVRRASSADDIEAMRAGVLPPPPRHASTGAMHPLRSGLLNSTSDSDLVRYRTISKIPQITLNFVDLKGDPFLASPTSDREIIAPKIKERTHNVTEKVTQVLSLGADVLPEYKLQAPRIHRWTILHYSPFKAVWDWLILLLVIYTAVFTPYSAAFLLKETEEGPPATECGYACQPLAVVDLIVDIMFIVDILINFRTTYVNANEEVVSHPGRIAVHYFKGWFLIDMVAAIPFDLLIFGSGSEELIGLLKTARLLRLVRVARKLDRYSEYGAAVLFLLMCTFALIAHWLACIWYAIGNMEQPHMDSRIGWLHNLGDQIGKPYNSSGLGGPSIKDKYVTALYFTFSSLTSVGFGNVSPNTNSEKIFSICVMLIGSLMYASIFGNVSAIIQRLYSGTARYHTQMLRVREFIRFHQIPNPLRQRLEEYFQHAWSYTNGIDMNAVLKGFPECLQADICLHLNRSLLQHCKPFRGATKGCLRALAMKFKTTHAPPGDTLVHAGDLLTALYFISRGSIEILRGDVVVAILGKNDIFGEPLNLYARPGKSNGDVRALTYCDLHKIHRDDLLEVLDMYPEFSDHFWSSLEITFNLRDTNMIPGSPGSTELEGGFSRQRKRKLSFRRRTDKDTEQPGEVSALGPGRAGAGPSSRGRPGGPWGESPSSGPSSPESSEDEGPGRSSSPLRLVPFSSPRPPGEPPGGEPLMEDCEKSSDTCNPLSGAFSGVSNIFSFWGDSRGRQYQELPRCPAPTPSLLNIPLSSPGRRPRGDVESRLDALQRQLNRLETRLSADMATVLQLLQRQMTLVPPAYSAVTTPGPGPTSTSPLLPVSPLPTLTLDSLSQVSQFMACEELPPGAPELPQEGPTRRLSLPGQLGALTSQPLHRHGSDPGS
`CN1CCN(c2ccc(C(=O)c3ccc(F)cc3)cc2)CC1`: the “hERG current change (%, negative = inhibition) at 10uM” value is listed as -34.9%.

Turning to `Cc1ccc(NS(=O)(=O)c2ccc3oc(=O)ccc3c2)cc1Cl`, the “hERG current change (%, negative = inhibition) at 10uM” value is on record as 3.79%.

Consider `CCN(CC)C(=O)CN(c1cc(Cl)ccc1OC)S(C)(=O)=O`, for which the “hERG current change (%, negative = inhibition) at 10uM” value is recorded as 5.63%.

Turning to `CCc1nnc(NC(=O)NC(C)(C)C)s1`, the “hERG current change (%, negative = inhibition) at 10uM” value is recorded as 9.22%.

Take `COc1ccccc1-n1c(SCC(=O)Nc2cccc3ccccc23)nc(O)cc1=O`: the “hERG current change (%, negative = inhibition) at 10uM” value was found to be 5.56%.

On to `Cc1ccc(N2C(=O)C3C(C(=O)c4ccccc4)=NN(c4ccccc4)C3C2=O)cc1` (stereo not shown), for which the “hERG current change (%, negative = inhibition) at 10uM” value is -5.36%.

`CCOP(=O)(OCC)/C(C#N)=C/c1ccc([N+](=O)[O-])cc1`: the “hERG current change (%, negative = inhibition) at 10uM” value is on record as -33.1%.

For the compound `O=C(CSc1n[nH]c(-c2ccccc2)n1)NC(=O)NCc1ccco1`, the “hERG current change (%, negative = inhibition) at 10uM” value is -14%.

On to `C=CCn1c(-c2ccc(S(=O)(=O)N3CCOCC3)cc2)csc1=Nc1ccccc1`, for which the “hERG current change (%, negative = inhibition) at 10uM” value is 0.308%.

Regarding `CNC(=O)CN1C(=O)CSc2nc(C)cc(C)c21`, the “hERG current change (%, negative = inhibition) at 10uM” value turned out to be 2.26%.

On to `CCOC(=O)c1c(NC(=O)c2nn(CC)cc2Br)c(C#N)cn1-c1ccccc1`, for which the “hERG current change (%, negative = inhibition) at 10uM” value was -5.82%.

For the compound `CCCC(O)(c1ccc(OC)cc1)C(CN1CCOCC1)c1ccccc1` (stereo not shown), the “hERG current change (%, negative = inhibition) at 10uM” value is -7.61%.

On to `COc1ccc(C=O)cc1Cn1c(C)cc(C)c(C#N)c1=O`, for which the “hERG current change (%, negative = inhibition) at 10uM” value came out at 4.1%.

For `CC(c1ccccc1)N1C(=O)CC(Sc2ncccc2C(=O)O)C1=O` (stereo not shown), the “hERG current change (%, negative = inhibition) at 10uM” value is recorded as 11%.

On to `CN(CCOc1ccccc1)C(=O)c1cc([N+](=O)[O-])ccc1N1CCOCC1`, for which the “hERG current change (%, negative = inhibition) at 10uM” value is recorded as -27.3%.

As to `CN(c1ccccc1)S(=O)(=O)c1cccc(NC(=O)c2cc(=O)c3ccccc3o2)c1`, the “hERG current change (%, negative = inhibition) at 10uM” value turned out to be 11.7%.

As to `CCCCN(C(=O)NC(=O)Nc1nc2ccc(OC)cc2s1)S(C)(=O)=O`, the “hERG current change (%, negative = inhibition) at 10uM” value was determined as 20.3%.

Take `CC1CCCN(CCCNC(=O)c2ccc3c(c2)N(Cc2ccc(F)cc2)C(=O)c2ccccc2S3=O)C1` (stereo not shown): the “hERG current change (%, negative = inhibition) at 10uM” value is reported as -32.9%.

For `Cc1ccc2nc(-c3ccc(Br)o3)oc(=O)c2c1`, the “hERG current change (%, negative = inhibition) at 10uM” value was -10.1%.

As to `Cc1ccc(-c2csc3nc(C)n(N)c(=O)c23)cc1`, the “hERG current change (%, negative = inhibition) at 10uM” value was 9.92%.

`Cc1cc(C)n(C(=O)c2cc3c(s2)CCCC3)n1`: the “hERG current change (%, negative = inhibition) at 10uM” value was determined as 0.691%.

With `CCOc1ccc(Cl)cc1S(=O)(=O)N1CCC(C(=O)NCc2ccccn2)CC1`, the “hERG current change (%, negative = inhibition) at 10uM” value is -12.3%.

In the case of `N#Cc1nc(-c2ccccc2)oc1NCCCn1ccnc1`, the “hERG current change (%, negative = inhibition) at 10uM” value is on record as -27.5%.

For `COc1cc(OC)cc(C(=O)NNC(=S)NCc2ccco2)c1`, the “hERG current change (%, negative = inhibition) at 10uM” value is -4.66%.

`COc1ccc(C2=NN(C3=NN=C(N)Cc4ncnn43)C(O)(C(F)(F)F)C2)cc1` (stereo not shown): the “hERG current change (%, negative = inhibition) at 10uM” value came to 13.8%.
